PubChem BioAssay AID651820 (National Center for Advancing Translational Sciences (NCATS), 2012)
Hit rate of the full screen: of about 340,000 compounds, about 12,000 (3.5%) were called active. The shares of active, inactive and inconclusive entries below differ from those in the screen. Calls follow the shape of the dose curve; as a rule, active = well fitted inhibition curve with a large enough effect; inconclusive = small, poorly fitted or top-dose-only effect, or another doubt; inactive = no such curve, though single readings can be large or run the other way. Potencies of inconclusive entries are left out as doubtful fits.
% is scaled to controls: 0 for no effect and ±100 for the full control effect; potency is read from the fitted curve at half-maximal effect; tags tell the direction and shape of the fitted curve.

Test: qHTS Assay for Inhibitors of Hepatitis C Virus (HCV)
Details: Huh7.5.1 HCVcc-Cre (HCVcc is cell-culture hepatitis C virus) infection, luciferase reporter, 44 h; activity change, negative = inhibition: at 41.8 µM (top of the series) unless noted
Outline: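 Luciferase read-out (15 sec integration) after a 15 min room-temperature substrate step quantifies HCVcc-Cre infection. Cells, 1,000 per well, had compound added 4 h post-plating, then virus at ~0.5 moi, and were cultured 44 h.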
In the case of Cc1ccc2cccc(OCc3cccc([N+](=O)[O-])c3)c2n1, the Potency is reported as inconclusive [inhibitor, partial curve].
In the case of CCN(CC)C(=O)CSc1nc2cc(S(=O)(=O)N3CCOCC3)ccc2n1CC, the Potency is reported as “inactive”.
For COc1ccc(-c2nc(C#N)c(NCc3ccc(F)cc3)o2)cc1OC, the Potency was active: 3.55 µM.
With CCC(=O)c1ccc(OCc2ccc(C(=O)OC)o2)c(OC)c1 the Potency was “inactive”.
In the case of COc1ccc(/C=C/c2c(-c3ccc(OC)cc3)oc(=O)c3cc(OC)c(OC)cc23)cc1, the Potency is reported as inconclusive [inhibitor, partial curve].
For CCC1(CC)NC(=O)N(CC(=O)Nc2ccc(OCc3ccccc3)cc2)C1=O, the Potency was inconclusive [inhibitor, partial curve].
With COc1ccc(C(=O)N2CCCC(N3CCN(c4ccccc4F)CC3)C2)c(OC)n1 (configuration not stated) the Potency was inconclusive [inhibitor, partial curve].
In the case of COc1c(Cl)cc(Cl)cc1/C=N/NC(=O)c1nnn(-c2nonc2N)c1CN1CCC(C)CC1, the Potency is reported as inconclusive [inhibitor, partial curve].
In the case of CCOc1ccc(NC(=O)c2nsc(Cl)c2Cl)cc1, the Potency is reported as inconclusive [inhibitor, single point].
With CCN(CC)S(=O)(=O)c1ccc(OC)c(NC(=O)CSc2cc(Cl)ccc2Cl)c1 the Potency was inconclusive [inhibitor, full curve].
For Cc1noc(C)c1COC(=O)c1cc(=O)[nH]c2ccccc12, the Potency was “inactive”.
In the case of O=C(CCC(=O)N1CCSc2ccccc21)NC1CCCCC1, the Potency is reported as “inactive”.
In the case of Cc1ccc(S(=O)(=O)N2CCC(C(=O)NCc3ccccc3CN3CCCC3)CC2)cc1C, the Potency is reported as inconclusive [inhibitor, single point].
For CC1CCCCN1C(=O)CSc1nc(-c2ccccc2)cc(=O)[nH]1 (configuration not stated), the Potency was “inactive”.
With Cc1ccc2nc(C3CCCN(C(=S)Nc4cccc(C)c4C)C3)[nH]c2c1 (configuration not stated) the Potency was active: 1.78 µM.
With CCN(CC(=O)Nc1cc(Cl)ccc1C)C(=O)c1cc([N+](=O)[O-])ccc1N1CCOCC1 the Potency was inconclusive [inhibitor, partial curve].
For O=C(CNC(=O)c1ccc2c(c1)OCCO2)N=Nc1c(O)[nH]c2ccccc12, the Potency was inconclusive [inhibitor, partial curve].
For COc1cc(C#Cc2c(-c3cncn3C)n(C)c3ccc(-c4ccc5cc[nH]c5c4)cc23)cc(OC)c1, the Potency was inconclusive [inhibitor, single point].
In the case of Cn1ccnc1SCC(=O)c1ccc(F)cc1, the Potency is reported as “inactive”.
With CCn1c(SCC(=O)Nc2ccc(C(C)=O)cc2)nc2c([nH]c3ccccc32)c1=O the Potency was inconclusive [inhibitor, partial curve].
In the case of CCOC(=O)c1ccccc1NC(=O)CSc1nnc(Cc2cccn2C)n1-c1ccc(C)cc1, the Potency is reported as inconclusive [inhibitor, single point].
For CC(C)=CC(=O)OCc1cc([N+](=O)[O-])cc2c1OCOC2, the Potency was inconclusive [inhibitor, single point].
For C=CCNC(=O)c1ccc(C2SCC(=O)N2Cc2ccccc2)cc1 (configuration not stated), the Potency was inconclusive [inhibitor, single point].
With CCN(CC)C(=O)N1CCC(NC(=O)c2ccc(C(C)(C)C)cc2)CC1 the Potency was inconclusive [inhibitor, single point].
With CCOc1ccccc1CNC(=O)CCc1cn(CC)c2ccccc12 the Potency was inconclusive [inhibitor, partial curve].
For C[C@@H](C(=O)Nc1ccc2ccccc2c1)[C@@H]1C[C@@]1(C)[C@@H](NC(=O)c1cccnc1)c1ccccc1, the Potency was inconclusive [inhibitor, single point].
With O=C(CNC(=O)C(c1ccccc1)c1ccccc1)N/N=C\c1ccc(C(=O)O)cc1 the Potency was “inactive”.
With Cn1c(=O)n(C)c2cc([N+](=O)[O-])c(N3CCN(C(=O)c4ccccc4Br)CC3)cc21 the Potency was active: 12.6 µM.
With CCCCOc1ccc(/C=C/C(=O)Nc2ccc([N+](=O)[O-])cc2C)cc1 the Potency was inconclusive [inhibitor, partial curve, poor fit].
For O=C(CCl)N(C/C=C/c1ccccc1)c1ccc2c(c1)OCCO2, the Potency was active: 2.24 µM.
With CC(C)(C)C(=O)N1CCN(c2nc3ccc(Cl)cc3s2)CC1 the Potency was “inactive”.
With Cc1ccc(-c2noc(C3CCN(C(=O)Nc4ccc(C#N)cc4)CC3)n2)o1 the Potency was active: 10 µM.
For COc1cc(/C=N/Nc2ccccn2)ccc1OCC(C)C, the Potency was active: 8.91 µM.
With N#CC1=C2SCC(O)(c3ccccc3)N2C(=O)CC1c1cccs1 (configuration not stated) the Potency was inconclusive [inhibitor, full curve, poor fit].
For CCc1ccc2nc(SCC(=O)N3CC(=O)Nc4ccccc43)c(C#N)cc2c1, the Potency was active: 4.47 µM.
With CC(C)c1nccn1CCC(=O)O the Potency was inconclusive [inhibitor, full curve, poor fit].
In the case of COc1ccc(C(=O)c2ccc(OC)c3cccc(O)c23)cc1OC, the Potency is reported as inconclusive [inhibitor, partial curve].
For CN1CCN(C(=O)c2ccc3c(c2)N(C)C(=O)/C(=C/c2cccc(Cl)c2)S3)CC1, the Potency was inconclusive [inhibitor, partial curve].
With Cc1cc(S(=O)(=O)N2CCCCC2)ccc1OCC(=O)Nc1ccccc1 the Potency was inconclusive [inhibitor, single point].
For CCc1cc2c(SCC(=O)N(CC)c3c(N)n(Cc4ccccc4)c(=O)[nH]c3=O)ncnc2s1, the Potency was inconclusive [inhibitor, single point].
In the case of CC(=O)c1c(C)[nH]c(C(=O)OCC(=O)Nc2c(C)n(C)n(-c3ccccc3)c2=O)c1C, the activity change, negative = inhibition is reported as inconclusive: -98.2% [inhibitor].
With CN(C)C(=O)N1CCC(C(=O)N2CCCC(C(=O)c3ccc(C(C)(C)C)cc3)C2)CC1 (configuration not stated) the Potency was “inactive”.
For COP(=O)(NC(C)=O)SC (configuration not stated), the Potency was inconclusive [inhibitor, single point].
With COCCCNC(=O)N1c2ccccc2Sc2ccccc21 the Potency was “inactive”.
In the case of COCCCNC(=O)CC1C(=O)N(Cc2ccccc2)C(C)c2nc3ccccc3n21 (configuration not stated), the Potency is reported as “inactive”.
With CCCCCCCCn1c(=O)c(C(=O)OC)c(N)c2ccccc21 the Potency was active: 12.6 µM.
For Cc1cc(C)nc(N/N=C/c2c[nH]c3ccccc23)n1, the Potency was “inactive”.
For CCCC(NC(=O)C(C)N1CCN(S(=O)(=O)c2ccccc2)CC1)c1ccccc1 (configuration not stated), the Potency was inconclusive [inhibitor, partial curve].
For CCc1nn(CCCC(=O)N2CCN(c3cccc(C)c3C)CC2)c(=O)c2cc3occc3n12, the Potency was active: 14.1 µM.
With Cc1ccc(NC(=O)C(C)OC(=O)CCNS(=O)(=O)c2ccc(C)cc2)cc1 (configuration not stated) the Potency was inconclusive [inhibitor, partial curve].
In the case of CCCOc1ccc(-c2nc[nH]c2[N+](=O)[O-])cc1, the Potency is reported as “inactive”.
With Cc1c(NC(=O)C(C)OC(=O)c2cccs2)c(=O)n(-c2ccccc2)n1C (configuration not stated) the Potency was “inactive”.
In the case of CCOC(=O)c1cc(C)n(CCc2ccccc2)c1C, the Potency is reported as inconclusive [inhibitor, single point].
In the case of O=[N+]([O-])c1cccc(-c2nc3ccc([N+](=O)[O-])cc3[nH]2)c1, the Potency is reported as active: 14.1 µM.
In the case of C[C@H](CO)N1C[C@H](C)[C@@H](CN(C)C(=O)Nc2ccc(C(F)(F)F)cc2)Oc2c(NC(=O)Nc3ccc4c(c3)OCO4)cccc2C1=O, the Potency is reported as inconclusive [inhibitor, single point].
In the case of CCOC(=O)c1c(C)[nH]c(C(=O)OC(C)C(=O)NC2CCCCC2C)c1C (configuration not stated), the Potency is reported as inconclusive [inhibitor, single point].
For CCOc1cc(S(=O)(=O)NCc2ccccc2)c(OCC)cc1-n1cnnn1, the Potency was “inactive”.
With CCN1CCN(c2nc(-c3ccccc3)nc3ccccc23)CC1 the Potency was inconclusive [inhibitor, partial curve, poor fit].
In the case of Cc1oc(-c2cccc(Cl)c2)nc1CN1CCC(C(=O)NCCCN2CCCC2=O)CC1, the Potency is reported as “inactive”.
With O=C(CSc1nnc(Nc2ccccc2F)s1)NC1CCCC1 the Potency was “inactive”.
With Cc1cc(=O)oc2cc(OCC(=O)OCC(=O)N(C)C3CCS(=O)(=O)C3)ccc12 (configuration not stated) the Potency was “inactive”.
In the case of COc1ccc(NC(=O)c2ccccc2)cc1, the Potency is reported as active: 0.562 µM.
In the case of c1ccc(COc2ccc(OCCCCN3CCCC3)cc2)cc1, the Potency is reported as inconclusive [inhibitor, partial curve].
With Cc1cc2nncn2c2ccccc12 the Potency was “inactive”.
With CCn1cc(Cl)c(C(=O)Nc2nccs2)n1 the Potency was inconclusive [inhibitor, single point].
For COc1ccc(CC(=O)NNC(=O)c2cnccn2)cc1, the Potency was “inactive”.
For COc1ccc(C(=O)N(C)CC2CCN(CCc3cccc(C(F)(F)F)c3)CC2)cc1C, the Potency was inconclusive [inhibitor, partial curve].
With Cc1ccc(OCc2nc(C#N)c(N3CCCC3)o2)cc1 the Potency was inconclusive [inhibitor, single point].
In the case of C/C(CC(=O)Nc1ccc(Cl)c(C(F)(F)F)c1)=N\NC(=O)c1cnccn1, the Potency is reported as inconclusive [inhibitor, single point].
With CCCc1cc(=O)[nH]c(SC(C)C(=O)N2c3ccccc3CC2C)n1 (configuration not stated) the Potency was inconclusive [inhibitor, single point].
In the case of CC1(C)CC(c2nc(-c3ccc(Br)cc3)cs2)CCS1 (configuration not stated), the Potency is reported as inconclusive [inhibitor, partial curve].
For COc1ccc2nc(SCC(=O)/C(C#N)=C(\C)N)[nH]c2c1, the Potency was “inactive”.
